About 4,300 (8.3%) of roughly 52,000 compounds were called active. No stated cut-off is given here; in the data, active means survival mostly below about 52% (no sharp cut-off); inactive means mostly above about 56%. This is one part of the list.
system: DeltatarO mutant; experiment: S. aureus survival, RN4220 and DeltatarO strains – OD600, teichoic acid synthesis inhibitors, primary screen (AID 463173); settings: S. aureus RN4220 wild type/DeltatarO growth, OD600, 18 h, hits give low values, screened at 18.75 µg/mL (by protocol)

Structure (SMILES)	survival
Cc1cc2oc(C(=O)Nc3ccc(S(=O)(=O)N(C)Cc4ccccc4)cc3)cc(=O)c2cc1C	inactive: 49%
Cc1ccc(CNC(=O)CCC(=O)N2CC3CCCN3c3ccccc32)cc1 (configuration not stated)	inactive: 83%
O=C(Nc1ccc2oc(-c3cc(Br)ccc3Cl)nc2c1)c1cc2ccccc2o1	inactive: 107%
COc1cc(-c2cc3n(C)c(C)c(CCC(=O)O)c(=O)n3n2)cc(OC)c1OC	inactive: 94%
CCOc1ccc(NC(=O)C2CCN(C(=O)N3CC(C)Oc4ccc(Cl)cc43)CC2)cc1 (configuration not stated)	inactive: 100%
C/C=N/N(C)c1cc(=O)n(C)c(=O)[nH]1	inactive: 89%
COc1ccccc1OCCSc1nc(-c2ccc(C(C)(C)C)cc2)nc2cc(=O)[nH]n12	inactive: 49%
Cc1ccc(CNC(=O)Cn2cc(S(=O)(=O)Cc3ccccc3Cl)c3ccccc32)cc1	inactive: 69%
CCOc1ccc(NC(=O)C(CC)n2c(=O)c(-c3ccccc3NC(C)=O)nc3ccccc32)cc1 (configuration not stated)	inactive: 72%
O=C(CCOc1ccccc1)N(Cc1cccnc1)c1nc2c(F)cc(F)cc2s1	inactive: 97%
COc1cc(OC)c(NC(=O)N2CCSc3ccccc32)cc1Cl	inactive: 74%
COc1ccc(CNC(=O)c2cnc3sc(N4CCOCC4)nn3c2=O)cc1	inactive: 129%
CC(C)(C)OC(=O)N1CCN(c2ccc(NC(=O)c3cc4ccccc4oc3=O)cc2)CC1	inactive: 97%
O=C(CSC1=Nc2ccccc2C2=NC(CCC(=O)NC3CCCCC3)C(=O)N12)Nc1cccc(C(F)(F)F)c1 (configuration not stated)	inactive: 80%
COc1ccc(C(=O)Nc2cc3c(cc2C(=O)c2ccccc2Cl)OCCO3)cc1	inactive: 69%
CCc1ccccc1N1CC(c2nc3ccccc3n2CCCOc2ccc(Cl)cc2)CC1=O (configuration not stated)	active: 41%
COc1ccccc1CNC(=O)c1cc2cc3ccc(Cl)cc3nc2o1	inactive: 84%
COc1ccc(CCNC(=O)CCc2c(C)nc3c(c(C)nn3-c3ccc(C)c(C)c3)c2C)cc1OC	inactive: 57%
CCOc1ccccc1NC(=O)Cn1c(=O)n(CCC(=O)NCc2ccc3c(c2)OCO3)c(=O)c2ccccc21	inactive: 114%
COc1cc(OC)c(NC(=O)c2csc3c2CCC(C)C3)cc1Cl (configuration not stated)	inactive: 109%
CCC1(C)Cc2ccccc2-c2[nH]c(=S)[nH]c(=O)c21 (configuration not stated)	inactive: 114%
COc1ccccc1N1CCN(c2ccc(NC(=O)c3ccc(C)cc3)cc2C(=O)O)CC1	inactive: 89%

Structure (SMILES)	survival
Cc1ccc(NC(=O)CCCn2c(=O)c3cccn3c3ccccc32)c(Cl)c1	inactive: 51%
Cc1c(CNC2CCCCC2)c(C(=O)O)c(C)n1Cc1c(F)cccc1Cl	inactive: 83%
Cn1c(N)c(C#N)c2c(c1=S)CCCC2	inactive: 85%
CCOC(=O)N1CCc2c(sc3c2c(=O)n(-c2ccccc2)c(=O)n3CC(=O)Nc2ccc(OC)cc2OC)C1	inactive: 83%
COc1ccc(NC(=O)CN2CCN(Cc3ccccc3)S2(=O)=O)c(OC)c1	inactive: 120%
CCOc1ccc(OCC)c(NC(=O)c2cc(S(=O)(=O)N3CCCC3)cn2C)c1	inactive: 69%
CCOC(=O)c1c(C)oc2nc(C)nc(NCCCN3CCN(c4ccccc4)CC3)c12	inactive: 67%
CC(O)c1nc2cc3ccccc3cc2[nH]1 (configuration not stated)	inactive: 105%
COC(=O)C(CCSC)NC(=O)C1CCN(c2ncnc3c2nc2n3CCCCC2)CC1 (configuration not stated)	inactive: 84%
CCOc1ccc(NC(=O)CCc2c(C)nc3nc(C)nn3c2C)cc1	inactive: 92%
CCOC(=O)c1c(NC(=O)CCCOc2ccccc2C)sc2c1CCC(C)C2 (configuration not stated)	active: 16%
C/C(=N/OCC(=O)Nc1sc2c(c1C#N)CCCC2)c1cccs1	inactive: 80%
Fc1ccc(-n2ncc3c(NC4CCCCCC4)ncnc32)cc1	inactive: 74%
COc1ccccc1CNC(=O)c1ccc(Cn2c(SCc3ccccc3)nc3cccnc32)cc1	active: 37%
CCNC(=O)CC1C(=O)N(c2ccc(F)cc2)C(=O)N1CCOC (configuration not stated)	inactive: 84%
N#Cc1ccccc1CN1C(=O)c2ccccc2Sc2ccc(C(=O)OCc3ccco3)cc21	inactive: 82%
O=C(CCc1ccccc1)NCc1nc2cccnc2n1Cc1ccc(F)cc1	active: -4%
CCOc1ccc(C(=O)N2CCC(c3nnc(-c4ccccc4OC)o3)CC2)cc1	inactive: 118%
CC(C)(C)OC(=O)N1CCC(c2c(C(=O)N3CCN(C(=O)c4ccco4)CC3)cnn2-c2ccc(F)cc2F)CC1	inactive: 109%
CCOc1ccc(-n2nc3ccc(NC(=O)Cc4ccccc4)cc3n2)cc1	inactive: 74%
CCCOC(=O)c1c(NC(=O)c2cc3ccccc3c(=O)o2)sc2c1CCC(C)C2 (configuration not stated)	inactive: 112%
Cc1ccc(-c2nnc3c4ccccc4c(C)nn23)cc1NC(=O)c1ccccc1	inactive: 81%

Structure (SMILES)	survival
COc1ccc(-c2cn3c(C)c(C(=O)Nc4cc(C)cc(C)c4)sc3n2)cc1	inactive: 77%
Cc1cc(-c2ccc(C)c(S(=O)(=O)N3CCOc4ccc(Cl)cc43)c2)on1	inactive: 79%
CCc1ccccc1-n1c(N)c(C(=O)OC)c2nc3ccccc3nc21	inactive: 74%
CCc1cccc(NC(=O)CN(C)S(=O)(=O)c2ccc3[nH]c4c(c3c2)CCCC4)c1	inactive: 101%
COC(=O)c1sc2cccc(F)c2c1S(=O)(=O)N1CCN(c2cccc(C)c2)C(C)C1 (configuration not stated)	inactive: 94%
COc1ccc(CCNc2ncnc3c2nnn3C)cc1	inactive: 89%
Cc1nc2ccc(S(=O)(=O)N(CC(=O)Nc3ccc(F)cc3)Cc3ccccc3)cc2s1	inactive: 89%
CC1CCc2c(sc(NC(=O)CCCOc3ccccc3)c2C(N)=O)C1 (configuration not stated)	inactive: 78%
CCOc1cc(C(=O)Nc2ccc3c(c2)n(C)c(=O)c(=O)n3C)cc(OCC)c1OCC	inactive: 84%
CCOc1ccc(-n2c(SCC(=O)Nc3ccc(CC)cc3)nc3c(oc4ccccc43)c2=O)cc1	inactive: 71%
CCn1c(COc2ccccc2)nnc1SCC(=O)CC(=O)Nc1ccccc1OC	inactive: 71%
O=C(Nc1ccc(OC(F)(F)F)cc1)c1noc2c1CCCC2	inactive: 65%
CCOC(=O)CCc1c(C)nc2cc(-c3cc(OC)cc(OC)c3)[nH]n2c1=O	inactive: 90%
COc1cc(NC(=O)c2cc(-c3cccc(OC)c3)n[nH]2)cc(OC)c1	inactive: 80%
COC(=O)c1ccc(NC(=O)CC2C(=O)N(c3cccc(OC)c3)C(=O)N2C(C)C)cc1 (configuration not stated)	inactive: 88%
COc1cc(NC(=O)c2nnn(CC(=O)Nc3cc(C)ccc3C)c2N)cc(OC)c1	inactive: 94%
C/C(=N\O)C(=O)C(CN1CCCCC1)CN1CCCCC1	inactive: 88%
Cc1cccc(N2CCN(C(=O)c3cnc(N4CCCC4)nc3C)CC2)c1C	inactive: 90%
COc1ccc(C2c3c(n(C)c4ccccc34)C(=O)N2CC(=O)Nc2cccc(Cl)c2C)cc1 (configuration not stated)	inactive: 87%
CC1CCCN(C(=O)Cn2ncc3c([nH]c4ccccc43)c2=O)C1 (configuration not stated)	inactive: 92%
CCCCOc1ccc(C(=O)NCc2nnnn2-c2ccc(C)c(C)c2)cc1	inactive: 98%
CCOC(=O)c1c(C)oc2ncnc(Nc3cc(C)cc(C)c3)c12	inactive: 94%

Structure (SMILES)	survival
O=C(NCCCN1CCN(c2cccc(Cl)c2)CC1)c1cnn(-c2ccc(F)cc2)c1-n1cccc1	active: 32%
O=C(NCCc1csc2nc(-c3ccccc3F)nn12)C(=O)Nc1cc(F)ccc1F	inactive: 79%
CCN1C(=O)c2ccccc2Sc2ccc(NC(=O)Nc3cccc([N+](=O)[O-])c3C)cc21	inactive: 86%
CCC1=C(c2ccc(C)cc2)S(=O)(=O)N=C1N1CCC(C(=O)NCc2ccc(N(C)C)cc2)CC1	inactive: 86%
COc1ccc(N(C(=O)c2ccc(C(C)(C)C)cc2)S(=O)(=O)c2ccc(Cl)cc2)cc1	inactive: 81%
COc1ccc(CNC(=O)c2cnn3c(C)c(Cc4c(F)cccc4Cl)c(C)nc23)cc1	inactive: 75%
Cc1ccc(N2CC(NC(=O)c3cccc(Cl)c3)CC2=O)cc1C (configuration not stated)	inactive: 75%
COc1ccc(C(=O)c2c(N)c(C(=O)Nc3cccc(OC)c3)c3ccccn23)cc1	inactive: 79%
Cc1c(C(=O)N(C)C)sc2c1c(=O)n(-c1ccc(Cl)cc1)c(=O)n2CC(=O)C(C)(C)C	inactive: 102%
COc1ccc(-n2c(=O)c3sc4ccccc4c3n(Cc3ccccc3C)c2=O)cc1OC	inactive: 97%
Cc1ccc(NC(=O)Cn2nc(N3CCN(c4ccccc4)CC3)ccc2=O)cc1F	inactive: 83%
COc1ccc(S(=O)(=O)N2Cc3ccccc3CC2C(=O)Nc2ccc(C)cc2C)cc1OC (configuration not stated)	inactive: 68%
CCOC(=O)c1c(C)[nH]c(C)c1S(=O)(=O)N1CCC(C(=O)NCc2cccc(OC)c2)CC1	inactive: 67%
CCC1CCCCN1S(=O)(=O)c1cc2c3c(c1)CC(=O)N3CCC2 (configuration not stated)	inactive: 101%
CCC(C(=O)O)n1ccc2cc(S(=O)(=O)N3CCCCC3)ccc21 (configuration not stated)	inactive: 82%
CCc1ccccc1NC(=O)Cn1c(=O)ccc2cc(S(=O)(=O)N3CCCC3)ccc21	active: 46%
CCCSc1ncc(Cl)c(C(=O)N(Cc2ccc(Cl)cc2)Cc2ccco2)n1	active: 39%
CCOC(=O)N1CCc2c(sc3c2c(=O)n(-c2ccc(CC)cc2)c(=O)n3C)C1	inactive: 105%
COc1ccc(OCc2ccc(-c3nc(C#N)c(N4CCCCC4)o3)o2)cc1	active: 42%
Cc1ccccc1OCC(=O)N1CCC(c2nc3ccccc3s2)CC1	inactive: 51%
O=C(NCc1ccccc1)c1ccc2c(c1)CCN2S(=O)(=O)c1ccc(Cl)cc1	inactive: 73%
